We go through 1 molecule from paper doi:10.1101/577437 (bioRxiv, 2019).

Assay [1] has as its target HRAS wild-type (residues 1-171) (UniProt P01112). Kind of assay: NMR titration.
Another assay deals with NRAS (residues 1-172) (UniProt P01111). Kind of assay: NMR titration.

B1: human BRAF RBD ([…]) (domain or fragment)
chain: not shown
On to B1, for which the binding result (in assay [1]; with NRAS (residues 1-172)) was “binds” throughout.
